Assay results published in PubChem BioAssay AID652104 (National Center for Advancing Translational Sciences (NCATS), 2013).
The whole screen tested about 410,000 compounds, of which about 7,200 (1.8%) were called active. The shares of active, inactive and inconclusive entries below differ from those in the screen. Calls come from the whole dose curve; as a rule, active = well fitted activation curve with a large enough effect; inconclusive = small, poorly fitted or top-dose-only effect, or another doubt; inactive = no such curve, though single readings can be large or run the other way. Potencies of inconclusive entries are left out as doubtful fits.

Assay: qHTS of TDP-43 Inhibitors; note: nearly all actives have a fitted effect of over 50% in size; for growth rescue (activation): % of control where 0% means no effect
Settings: TDP-43 expressing yeast growth rescue, BacTiter-Glo, 24 h; growth rescue (activation): at 46.1 µM (top of the series) unless noted
How it was run: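 Cell-based yeast growth screen: TDP-43 expression induced in galactose, inoculum OD600=0.02 after raffinose pregrowth to mid-log. Read-out BacTiter-Glo luminescence at 24 hr, 30 deg C; inhibition of toxicity seen as signal increase.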
Potency is the fitted concentration of half-maximal effect; tags give direction and shape of the fitted curve.

Row | SMILES | Potency | growth rescue (activation)
1 | COc1ccc(-c2nnc(C3CCN(S(=O)(=O)c4ccccc4)CC3)o2)cc1 | inconclusive [activator, single point] | 
2 | Cc1nc(-c2cccc(NC(=O)COc3ccc(Cl)cc3)c2)cs1 | inconclusive [activator, partial curve] | 
3 | Cc1ccc(C(=O)CSc2nnc(COc3cccc(C)c3)o2)cc1 | inconclusive [activator, single point] | 
4 | O=C(c1ccc([N+](=O)[O-])s1)N1CCN(c2ccccc2)CC1 | inconclusive [activator, partial curve] | 
5 | O=C(c1sc2cc(F)ccc2c1Cl)N1CCN(c2cccc(Cl)c2)CC1 | inconclusive [activator, full curve] | 
6 | Cc1cc(C=NCCO)c(C)n1-c1cc(Cl)ccc1Cl | inconclusive [activator, single point] | 
7 | O=C(CCCSc1ccccc1)Nc1nc(-c2ccccn2)cs1 |  | inactive: -64.5%
8 | CC(C)CCn1c(O)c(N=Nc2ccccn2)c2ccccc21 | inconclusive [activator, single point] | 
9 | O=C1CCC(C2CCc3cc(O)ccc3C2)C1 (centres undefined) | inconclusive [activator, single point] | 
10 | O=C(Nc1cccc(NC(=O)c2c(F)cccc2F)n1)c1c(F)cccc1F |  | inactive: 0%
11 | COc1ccc(NC(=O)CCOc2ccc(C)cc2)c(OC)c1 | inconclusive [activator, partial curve] | 
12 | CCOC(=O)N1CCN(c2nc3ccc(C(=O)c4ccccc4)cc3n3cnnc23)CC1 | inconclusive [activator, single point] | 
13 | Cc1nc2c3ccccc3n(Cc3ccccc3F)c2s1 |  | inactive: 0%
14 | O=C(Cc1ccc(Cl)cc1)NC(=S)Nc1ccccc1N1CCOCC1 | inconclusive [activator, single point] | 
15 | COc1ccc(NCc2cc3cc4c(cc3n(CC(=O)Nc3ccccc3)c2=O)OCO4)cc1 |  | inactive: 12.5%
16 | NC(=O)COC(=O)CCSc1ccc(Cl)cc1 | inconclusive [activator, single point] | 
17 | Cc1ccc(C)c(NC(=O)c2nnn(Cc3ccccc3C)c2N)c1 | inconclusive [activator, single point] | 
18 | Cc1ccc(CC(=O)NC(C)CCc2ccccc2)cc1 (centres undefined) | inconclusive [activator, single point] | 
19 | COc1ccc(O)c(/C=C(\C#N)C(=O)Nc2cccnc2)c1 | inconclusive [activator, full curve, poor fit] | 
